Measurements reported in ChEMBL document CHEMBL4888484, “Replenishing the malaria drug discovery pipeline: Screening and hit evaluation of the MMV Hit Generation Library 1 (HGL1) against asexual blood stage Plasmodium falciparum ,using a nano luciferase reporter read-out” (2022).
Among all 150,000 compounds or so, about 540 (0.36%) showed an effect of 50% or more. The list shows a part of the results.

System: Plasmodium falciparum
Experiment: Primary screen in NF54 nanoGlo assay, in single point, at 2uM, 72h; a lower Z score goes with more inhibition
Type: functional, Erythrocyte
Conditions: timepoint 72 hour

| Compound | % Inhibition [%] | Z score |
| --- | --- | --- |
| Cc1cc(CN(C)S(=O)(=O)c2ccc(-c3cc(C(F)(F)F)[nH]n3)o2)no1 | 1 | -0.11 |
| CC(=O)Nc1ccc(Br)c(C)c1F | -18 | 2.61 |
| O=C(NCCC(=O)N1CC[C@H](n2cccn2)C1)C1CCCCC1 | -13 | 1.28 |
| COc1ccc(-c2cc(C(=O)NCc3ccccc3)c3c(-c4ccc(C)cc4)[nH]nc3n2)cc1OC | -11 | 1.02 |
| CCCC[C@H](O)CN(Cc1ccco1)Cc1c(C)nn(-c2ccccc2)c1Oc1ccc(C)cc1 | 2 | -0.42 |
| CCN1C[C@@H](CN(C)S(=O)(=O)Cc2cc(F)ccc2Cl)CC1=O | -13 | 1.7 |
| O=C(Nc1ccc(N2CCc3sccc3C2)nc1)c1ccc[n+]([O-])c1 | -19 | 2.55 |
| CCC(=O)N1CCc2cc(CNS(=O)(=O)c3ccc(F)cc3)ccc21 | -11 | 1.33 |
| CCN1CCCN(C(=O)CC2CCCCC2)CC12CCOCC2 | -9 | 1.09 |
| NNC1=NC2(CCCCC2)Cc2ccccc21 | -12 | 1.98 |
| CC(C)(C)[C@H](NS(C)(=O)=O)C(=O)NC1CCCC1 | 8 | -0.88 |
| CN(Cc1cscn1)C(=O)Nc1ncc(C(C)(C)C)s1 | 0 | 0.04 |
| c1ccc(Cn2nncc2CN2CCCc3occc3C2)cc1 | -11 | 1.39 |
| Cc1cc(O)n2nc(N(C)C(=O)C(=O)N3CCN(C)CC3)c(S(=O)(=O)c3ccccc3)c2n1 | 30 | -1.91 |
| Cc1ccc([C@@H]2CCCN2C(=O)Nc2ccncc2)cc1 | -6 | 0.82 |
| CN(Cc1nccs1)C(=O)c1cc(NCc2cc3ccccc3s2)cc(S(=O)(=O)N(C)C)c1 | -18 | 2.1 |
| CCc1cccc(C)c1NC(=O)N1CC(=O)N2CCc3cc(OC)c(OC)cc3[C@@H]2C1 | -11 | 1.49 |
| Cc1nc(-c2cccs2)sc1CNC(=O)c1ccc(-n2cccn2)nn1 | -10 | 1.86 |
| COCCN(C)Cc1ccc(CC2CCN(C(=O)c3n[nH]c4ccccc34)CC2)cc1 | -10 | 1.83 |
| NS(=O)(=O)C[C@H]1CCN(C(=O)c2scc3c2CCCC3)C1 | -6 | 0.95 |
| CCCN(CCC)C(=O)c1cc(F)ccc1OC | -10 | 1.09 |

| Compound | % Inhibition [%] | Z score |
| --- | --- | --- |
| COC[C@H]1C[C@@H](NC(=O)c2ccc(C#N)cc2)[C@H](O)[C@@H]1O | 6 | -0.76 |
| OCCC[C@@H]1CN(Cc2cnn(-c3cccc(F)c3)c2)CC[C@@H]1N1CCOCC1 | 11 | -1.41 |
| O=C1CC(C(=O)N2CCC3(CCCCCC3)C2)C1 | 9 | -1.56 |
| CCCOc1cc(C)c2c(c1C)C[C@H]([C@H](C)C(=O)NCCO)CC2 | 25 | -2.87 |
| COc1ccc(C(=O)N2c3ccccc3N=C(c3ccccc3)C[C@H]2c2ccccc2)cc1 | -2 | 0.19 |
| Cc1cc(NC(=O)N[C@@](C)(CO)C2CCCCC2)no1 | 11 | -1.48 |
| Cc1c(C(F)(F)F)nn(C)c1NC(=O)[C@H]1OCCO[C@H]1C | -8 | 1.15 |
| CCC1CN2CCCC2CN1Cc1ccc(OC(F)F)cc1 (stereo unspecified) | 1 | -0.12 |
| Cc1ccc(F)c(C(=O)N[C@H]2CCN(c3cc(=O)[nH]cn3)C2)c1F | -2 | 0.26 |
| CCC(=O)N1CC[C@H](NC(=O)N(C)c2ccc(F)cc2)C1 | 1 | -0.09 |
| C[C@H]1OCCN(C(=O)OC(C)(C)C)[C@@H]1C(=O)N(C)Cc1ccccn1 | -1 | 0.1 |
| CCOCCCNC(=O)C(=O)NCc1ccc(C)cc1 | -8 | 1.11 |
| Cc1cc(NCc2ccc(S(=O)(=O)N3CCCC3)cc2)nc(N)n1 | -1 | 0.23 |
| Cc1nonc1CN(C)Cc1cc(-c2ccc3c(c2)OCO3)ccc1OCC(=O)N1CCN(c2ccccc2F)CC1 | -11 | 1.23 |
| COCC1CCN(C[C@H]2C[C@@H]2c2ccccc2)C1 (stereo partly specified) | -4 | 0.8 |
| CN1C(=O)COC12CCN(Cc1nccn1CC(F)F)CC2 | -9 | 1.35 |
| COc1ccccc1CNC(=O)[C@H]1CCCN(c2nc3c(s2)c(C)nn3-c2ccccc2)C1 | -13 | 1.68 |
| COc1cccc(CNS(C)(=O)=O)c1 | -8 | 1.15 |
| CC(C)n1nc2c(cc1=O)CN(c1ncccc1C#N)CC2 | 31 | -3.49 |
| CCc1cc(C(=O)N2C[C@H](N(C)C)C[C@H]2C(=O)O)cs1 | -2 | 0.36 |
| Cc1ncc(C(C)NC(C)c2cnn(Cc3ccccc3)c2)c(C)n1 (stereo unspecified) | 2 | -0.42 |

| Compound | % Inhibition [%] | Z score |
| --- | --- | --- |
| CC(=O)N1CCN(C(=O)Nc2cccc(C)n2)CC1 | -5 | 0.58 |
| Cc1nc(CN)cc(N[C@H]2C[C@@H]2c2ccccc2)n1 | 2 | -0.34 |
| O=C(CN1CCCCC1)N1CCc2[nH]nc(-c3cccc(F)c3)c2C1 | -1 | 0.11 |
| Cc1ccnc(N2CC(C#N)C3(C2)C(=O)Nc2ccccc23)n1 (stereo unspecified) | 9 | -1.43 |
| O=S(=O)(c1ccccc1)N1CCOc2ccc(N3CCOCC3)cc2C1 | -1 | 0.13 |
| COc1cc(=O)n2c(c1C(=O)N(C)Cc1nonc1C)CCN(C(=O)Cc1ccc(F)cc1)CC2 | 12 | -1.47 |
| c1ccc2c(c1)C[C@H](c1nc(C3CCOCC3)n[nH]1)CO2 | 9 | -1.78 |
| C=CCn1c(=O)c2sc(N(CC)CC)nc2n(CC(=O)Nc2cccc(OC)c2)c1=O | -31 | 2.75 |
| O=C(NCCc1ccc(Cl)cc1)c1nnc([C@H](Nc2ccccc2)c2ccc(Cl)cc2)o1 | 2 | -0.31 |
| COc1ccc(-c2noc(-c3cccn3CC(=O)N3CCN(c4ccc(F)cc4)CC3)n2)cc1OC | 12 | -1.5 |
| COc1ccc(-c2cc3n(n2)C[C@@](C)(C(=O)NCc2ccccc2)N(Cc2ccc4c(c2)OCO4)C3=O)cc1 | 52 | -8.23 |
| NC1CC(c2cc(NCc3ccc(Cl)cc3)nc(C3CC3)n2)C1 (stereo unspecified) | 19 | -3.37 |
| CN(C)c1ccnc(N2CCOc3ccccc3C2)n1 | -23 | 2.96 |
| COc1nc(NC[C@H]2CCN(C3CCCCC3)C2)ncc1F | -1 | 0.19 |
| COc1c[nH]c(C(=O)N2CCC[C@H](N3CCc4ccccc4C3)C2)cc1=O | -11 | 1.12 |
| Nc1cccc(Oc2ccc(C(c3ccc(Oc4cccc(N)c4)cc3)(C(F)(F)F)C(F)(F)F)cc2)c1 | 7 | -1.22 |
| Cc1nn(C)c2nc3c(c(N)c12)C(=O)C[C@@H](c1ccccc1)C3 | -14 | 1.9 |
| Cc1ccccc1N1CCN(C(=O)c2csc(CN(Cc3cccc(Cl)c3)Cc3cccc(C(F)(F)F)c3)n2)CC1 | -22 | 1.96 |
| CCOc1ncccc1C(=O)N[C@H]1CCCc2occc21 | 0 | -0.04 |
| CCCCNC(=O)C1CCN(c2nc3ccccc3n(CC)c2=O)CC1 | -7 | 1.26 |
| c1ccc(CN2CCO[C@H](c3nc(-c4ccccc4)no3)C2)cc1 | -2 | 0.19 |

| Compound | % Inhibition [%] | Z score |
| --- | --- | --- |
| OC1CCN([C@H]2CCN(Cc3cccc(C(F)(F)F)c3)C[C@@H]2O)CC1 | -11 | 2.08 |
| CCc1nc(N2CC[C@H](NC(=O)c3cnccn3)[C@@H](O)C2)no1 | -16 | 1.57 |
| O=C(c1ccccc1F)N1CCN(C(=O)c2nnn3c2CO[C@H](c2ccccc2)C3)CC1 | -15 | 2.41 |
| CCCCNC(=O)CNc1cc(Cl)ccc1C(=O)NCC | -5 | 0.71 |
| COc1ccc([C@@H]2c3[nH]c4ccc(Cl)cc4c3CCN2C(=O)NCc2ccc(F)cc2)cc1 | 21 | -3.15 |
| CC(F)(F)CN1CCC[C@H](c2n[nH]c(C3CC3)n2)C1 | -4 | 0.9 |
| CC(C)(C)NCCNC(=O)C(=O)Nc1ccc(Cl)c(F)c1 | -7 | 1.01 |
| CN(C(=O)CCOC1CCOCC1)c1cccc(F)c1 | -8 | 1.06 |
| COc1cc(NC(=O)CCc2ccc(C)o2)ncn1 | -13 | 1.69 |
| C[C@@H](Cn1cncn1)C(=O)NCc1cccnc1N1CCN(C)CC1 | -1 | 0.19 |
| O=C(NCc1cccc(Cl)c1)[C@@H]1CN(S(=O)(=O)c2ccccc2Cl)CCO1 | 0 | -0.07 |
| CC(=O)N1CCN(C(=O)c2cc(Cl)c(Cl)n2C)CC1 | -1 | 0.19 |
| COc1cc(NCc2cn(C(C)(C)C)nn2)c(C)c(OC)c1 | -9 | 1.73 |
| C[C@@]1(C(=O)NCCS(=O)(=O)NCC2CCC2)CCCNC1=O | -3 | 0.35 |
| CCCCS(=O)(=O)N[C@@H](CC)c1ncccc1C | 3 | -0.59 |
| COCCN1C[C@@H](NC(=O)c2csc(-c3cccs3)n2)CC1=O | 9 | -0.99 |
| Clc1cccc(CNCCCNc2ccncc2)c1Cl | 67 | -8.81 |
| CCN(Cc1ccoc1)C(=O)C(=O)Nc1ncc(C)s1 | -6 | 0.72 |
| CC(C)N(C)CC(=O)NC1CCCCCCC1 | 9 | -0.89 |
| CCCOc1ccc(CNC(=O)CCn2ccn3nc(-c4ccc(C)c(C)c4)cc3c2=O)cc1 | 34 | -0.58 |
